In all, about 33,000 sequences were measured (“E-score (-0.5 to 0.5)”: median about -0.016, highest 2% from about 0.31 on). The list shows a part of the results.
molecular target: Cst6 (UniProt P40535); experiment: PBM E-score (8-mer binding enrichment) (E-score (-0.5 to 0.5)); higher = stronger / more preferred TF binding; most listed sequences are background and not binding sites; settings: protein concentration: 200 nM; construct: GST-DNA-binding domain
How it was run: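 Bound GST-tagged yeast transcription factors, applied at about 100-200 nM to double-stranded universal all-10-mer Agilent arrays, were detected with fluorescent anti-GST. Scans were normalised with masliner. A modified Wilcoxon-Mann-Whitney statistic, the E-score, was assigned to each ungapped eight-base word pooled with its reverse complement by the Universal PBM Analysis Suite.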

| Sequence | PBM E-score |
| --- | --- |
| AAAAATGA | 0.256 |
| AATGGGCA | -0.0629 |
| CGAAACCG | -0.00628 |
| CAACTATC | 0.00905 |
| GCCACAGA | -0.221 |
| CTCCATCA | -0.0314 |
| GGTGGCAC | -0.136 |
| CTCCTGTC | -0.0542 |
| ATAAGGAG | -0.111 |
| GCCGTTAC | 0.15 |
| GGGTGACA | 0.243 |
| AGTCGGAA | -0.0379 |
| TCCAGCAA | -0.0356 |
| CGGTTTAG | -0.204 |
| AGCAGAAT | 0.143 |
| ACAAAGCC | 0.0604 |
| AGGTTCGA | 0.125 |
| AATGATTG | 0.183 |
| TAAACACA | 0.06 |
| AGGATCCG | -0.174 |
| ATGTCAAC | 0.251 |
| GCGTCGGA | 0.0729 |
| ATAAAAGA | 0.0946 |
| GCTCTAAA | 0.0706 |
| CCTATTCC | -0.00999 |

| Sequence | PBM E-score |
| --- | --- |
| AGATCGGG | -0.326 |
| TCCTGAAA | 0.0041 |
| AGGTTATC | -0.114 |
| CCGTCCAC | -0.0174 |
| AGACTGTA | -0.089 |
| ATCACGTC | 0.286 |
| AATGAAAA | 0.236 |
| AATGGTGG | -0.166 |
| ACTGTCGG | -0.209 |
| CTACGATA | 0.0681 |
| GTGGCGCA | 0.0878 |
| AGCTAACT | 0.0381 |
| ACAGTATC | 0.215 |
| CAAGATTC | -0.0249 |
| GAATCAGA | 0.11 |
| AGATAGAC | -0.0649 |
| ATATATGC | 0.154 |
| ACGCTTGG | -0.154 |
| CTGCTTGA | -0.141 |
| CGCGCATC | -0.0674 |
| ATCTGGGA | -0.197 |
| CAAGGGCG | -0.0486 |
| CTCCTTCC | -0.146 |
| ACGCAGAT | -0.0398 |
| ATGAATAA | 0.0436 |

| Sequence | PBM E-score |
| --- | --- |
| GACGGACC | -0.0349 |
| AGGGAACT | -0.298 |
| GCTATGGA | -0.167 |
| AAGAAAAG | 0.155 |
| TCGTACAA | 0.169 |
| CCAAGCCA | -0.19 |
| GAAGGCCA | -0.209 |
| AATAACAA | 0.228 |
| CACTACTG | 0.00362 |
| TCGACACA | 0.108 |
| ATAGAGTA | 0.151 |
| GGTGCGAA | -0.093 |
| ACAAGCCG | -0.029 |
| GAACACGA | -0.0372 |
| GGTTCAAC | -0.0915 |
| AAGATAGT | 0.0932 |
| CCCAGATA | -0.15 |
| ATTGACCG | 0.0831 |
| ATCTTATA | 0.152 |
| ACCATTCA | 0.127 |
| CAACGCGG | 0.147 |
| ACAGCCGC | 0.0813 |
| ACTTTGTC | 0.0198 |
| CCAGCTCA | -0.146 |
| GGGGCGTA | -0.114 |

| Sequence | PBM E-score |
| --- | --- |
| CACTACCG | -0.223 |
| CCGGCTGA | -0.207 |
| TGGCTACA | 0.0815 |
| CAAACAAA | 0.114 |
| AAGGGAGA | -0.17 |
| CACCTTGC | 0.0146 |
| GCTGCATA | 0.165 |
| GATCATGA | 0.247 |
| CTCATCAC | 0.146 |
| AGCTTTCA | -0.0848 |
| ACCCCGAT | -0.157 |
| AATGGCCA | -0.265 |
| AGCGTCGA | 0.111 |
| CAAACAGC | 0.0663 |
| GGTTGGAC | -0.239 |
| CGACGGTC | -0.169 |
| AAGTGCTA | -0.0558 |
| TCCACTAA | -0.0375 |
| ACTCCTAA | 0.0155 |
| ATAACATA | 0.264 |
| ACTGCGTA | -0.114 |
| CGCCCGAG | -0.242 |
| CTGGGTAA | -0.0796 |
| AAGGGCCA | -0.237 |
| CGCGCAAA | 0.174 |

| Sequence | PBM E-score |
| --- | --- |
| GAAACTAA | 0.067 |
| GCTATGAA | 0.0103 |
| AACACAAT | 0.21 |
| ATTGTACG | 0.129 |
| GTCCAGTA | -0.19 |
| ATCGGGTG | 0.0966 |
| CTGCCCCA | -0.224 |
| ATACACGC | 0.0455 |
| AATCCGCA | -0.0116 |
| AAGGTATC | -0.0653 |
| CTGGCGTA | -0.193 |
| CTATGGTC | -0.155 |
| AATGTGCT | 0.0677 |
| TCCGGTCA | -0.15 |
| ACGCTTTC | -0.0857 |
| CTGGCATC | -0.199 |
| AGGGCCTA | -0.327 |
| CTGGCCTC | -0.2 |
| CCTCTAAG | -0.173 |
| GGGCGTAA | -0.0156 |
| GACTTCTA | -0.23 |
| AGGCAGAC | -0.207 |
| ACTCGACT | -0.251 |
| CCTGAACA | -0.0247 |
| GAGCCCAC | -0.346 |

| Sequence | PBM E-score |
| --- | --- |
| ACGGTGGA | -0.31 |
| CCTAAGTC | -0.231 |
| AGTGAAAT | 0.0683 |
| CGGGGGAC | -0.363 |
| CAAAGTAG | -0.0768 |
| AATCTCCA | -0.0897 |
| ACTATAGG | -0.191 |
| ACTTCACC | 0.186 |
| AGCTTATA | -0.00669 |
| CCCTGAGC | -0.0998 |
| CATTGGAA | 0.144 |
| ACCATCAG | -0.192 |
| CCATATTA | 0.0718 |
| GAGATAGA | -0.0453 |
| TCCATGGA | 0.0704 |
| GGCCTCTA | -0.279 |
| TAGTGTAA | 0.14 |
| TATGCCCA | -0.189 |
| AAATGCAC | -0.0406 |
| ATCAAGTG | 0.0496 |
| AAGGAAGA | -0.116 |
| ACCTGCTG | 0.0382 |
| AAACCCGA | 0.149 |
| AGGCATGC | -0.0314 |
| CCCATGTA | -0.0602 |

| Sequence | PBM E-score |
| --- | --- |
| CGCGAGAC | -0.0561 |
| AGGAGTTC | -0.272 |
| AACTTCAG | -0.0247 |
| GGTTGAAA | 0.0161 |
| AAGTGTAC | -0.0327 |
| GTGATTGA | 0.171 |
| CGCAAACC | 0.00084 |
| CCAAATTC | -0.0587 |
| ATTGTAGG | 0.119 |
| CCCTGGAG | -0.222 |
| AGGGGACA | -0.191 |
| CTATATTA | 0.333 |
| ATGACCCA | 0.0852 |
| CCCATAGC | -0.342 |
| CCTACCTC | -0.314 |
| GTCGGGAA | -0.156 |
| CCCCCGTA | -0.317 |
| CTACTGAA | 0.114 |
| TACTTCAA | 0.176 |
| CGGGCAAG | -0.208 |
| CAACGTAA | 0.329 |
| ATAATTGC | 0.105 |
